# Experimental data from the supplement of paper PMC8728848.
# Some of the results follow.
# B1: MSMEG3662-2a (Mycobacterium smegmatis), A0QYH7_MYCS2 (protein)
# chain: MGDTLTAGQKLERGGSLQSGNGAYTLTLQDDGNLVLYARDKAVWSTGTNGQDVVRAEVQTDGNFVLYTAEKPVWHTDTKGKKEVKLVLQDDRNLVLYAKDGPAWSSKTDTTEPPPPAPEPEKEAEVAPAAAEEAAPAPVAEPAPAEPAPAAPPPAPPAPRTYTVVSGDTLWAIAERFYGDGSKYQQIADASGIANPDLIHPGQVLTIP
# Columns and labels:
# Experiment in all cases: glycan array binding signal (z-score within array); higher = stronger binding
# Conditions in all cases: glycan notation: IUPAC condensed, linker removed
# [1] = target: Gal(b1-4)GalNAc(b1-3)[Fuc(a1-2)]Gal(b1-4)GlcNAc
# Method in brief: (§1)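 Glycan array data were curated from 3228 arrays in the Consortium for Functional Glycomics database and kept only where the protein sequence was available. Glycan names were converted to IUPAC-condensed notation, and columns mapping to the same glycan were averaged. The binding signal is a within-array Z-score, averaged across arrays of the same protein sequence at different concentrations or buffers and across linkers. Negative Z-scores can be read as non-binding.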
# [2] = target: Gal(b1-4)Glc
# Method in brief: as §1
# [3] = target: Gal(b1-4)Glc6S
# Method in brief: as §1
# [4] = target: Gal(b1-4)GlcNAc
# Method in brief: as §1
# [5] = target: Gal(b1-4)GlcNAc(a1-6)Gal(b1-4)GlcNAc
# Method in brief: as §1
# [6] = target: Gal(b1-4)GlcNAc(b1-2)Man
# Method in brief: as §1
# [7] = target: Gal(b1-4)GlcNAc(b1-2)Man(a1-3)Man(b1-4)GlcNAc(b1-4)GlcNAc
# Method in brief: as §1
# [8] = target: Gal(b1-4)GlcNAc(b1-2)Man(a1-3)[Gal(b1-4)GlcNAc(b1-2)Man(a1-6)]Man(b1-4)GlcNAc(b1-4)GlcNAc
# Method in brief: as §1
# [9] = target: Gal(b1-4)GlcNAc(b1-2)Man(a1-3)[Gal(b1-4)GlcNAc(b1-2)Man(a1-6)]Man(b1-4)GlcNAc(b1-4)[Fuc(a1-6)]GlcNAc
# Method in brief: as §1
# [10] = target: Gal(b1-4)GlcNAc(b1-2)Man(a1-3)[Gal(b1-4)GlcNAc(b1-2)Man(a1-6)][Gal(b1-4)GlcNAc(b1-4)]Man(b1-4)GlcNAc(b1-4)[Fuc(a1-6)]GlcNAc
# Method in brief: as §1
# [11] = target: Gal(b1-4)GlcNAc(b1-2)Man(a1-3)[Gal(b1-4)GlcNAc(b1-2)Man(a1-6)][GlcNAc(b1-4)]Man(b1-4)GlcNAc(b1-4)[Fuc(a1-6)]GlcNAc
# Method in brief: as §1
# [12] = target: Gal(b1-4)GlcNAc(b1-2)Man(a1-3)[GlcNAc(b1-2)Man(a1-6)]Man(b1-4)GlcNAc(b1-4)GlcNAc
# Method in brief: as §1
# [13] = target: Gal(b1-4)GlcNAc(b1-2)Man(a1-3)[GlcNAc(b1-4)][Gal(b1-4)GlcNAc(b1-2)Man(a1-6)]Man(b1-4)GlcNAc(b1-4)GlcNAc
# Method in brief: as §1
# [14] = target: Gal(b1-4)GlcNAc(b1-2)Man(a1-3)[Man(a1-6)]Man(b1-4)GlcNAc(b1-4)GlcNAc
# Method in brief: as §1
# [15] = target: Gal(b1-4)GlcNAc(b1-2)Man(a1-6)Man(b1-4)GlcNAc(b1-4)GlcNAc
# Method in brief: as §1
# [16] = target: Gal(b1-4)GlcNAc(b1-2)Man(a1-6)[GlcNAc(b1-2)Man(a1-3)]Man(b1-4)GlcNAc(b1-4)GlcNAc
# Method in brief: as §1
# [17] = target: Gal(b1-4)GlcNAc(b1-2)Man(a1-6)[Man(a1-3)]Man(b1-4)GlcNAc(b1-4)GlcNAc
# Method in brief: as §1
# [18] = target: Gal(b1-4)GlcNAc(b1-2)[Gal(b1-4)GlcNAc(b1-4)]Man(a1-3)[Gal(b1-4)GlcNAc(b1-2)Man(a1-6)]Man(b1-4)GlcNAc(b1-4)GlcNAc
# Method in brief: as §1
# [19] = target: Gal(b1-4)GlcNAc(b1-2)[Gal(b1-4)GlcNAc(b1-4)]Man(a1-3)[Gal(b1-4)GlcNAc(b1-2)[Gal(b1-4)GlcNAc(b1-6)]Man(a1-6)]Man(b1-4)GlcNAc(b1-4)GlcNAc
# Method in brief: as §1
# [20] = target: Gal(b1-4)GlcNAc(b1-2)[Gal(b1-4)GlcNAc(b1-4)]Man(a1-3)[GlcNAc(b1-4)][Gal(b1-4)GlcNAc(b1-2)Man(a1-6)]Man(b1-4)GlcNAc(b1-4)GlcNAc
# Method in brief: as §1
# [21] = target: Gal(b1-4)GlcNAc(b1-2)[Gal(b1-4)GlcNAc(b1-4)]Man(a1-3)[GlcNAc(b1-4)][Gal(b1-4)GlcNAc(b1-2)[Gal(b1-4)GlcNAc(b1-6)]Man(a1-6)]Man(b1-4)GlcNAc(b1-4)GlcNAc
# Method in brief: as §1
# [22] = target: Gal(b1-4)GlcNAc(b1-2)[Gal(b1-4)GlcNAc(b1-6)]Man(a1-6)[Gal(b1-4)GlcNAc(b1-2)Man(a1-3)]Man(b1-4)GlcNAc(b1-4)GlcNAc
# Method in brief: as §1
binder,measurement,setting,value
B1,glycan array binding signal (z-score),[1],-0.151
same,glycan array binding signal (z-score),[2],-0.09
same,glycan array binding signal (z-score),[3],0.057
same,glycan array binding signal (z-score),[4],-0.102
same,glycan array binding signal (z-score),[5],-0.067
same,glycan array binding signal (z-score),[6],-0.01
same,glycan array binding signal (z-score),[7],-0.081
same,glycan array binding signal (z-score),[8],-0.067
same,glycan array binding signal (z-score),[9],-0.059
same,glycan array binding signal (z-score),[10],-0.072
same,glycan array binding signal (z-score),[11],-0.072
same,glycan array binding signal (z-score),[12],0.07
same,glycan array binding signal (z-score),[13],-0.149
same,glycan array binding signal (z-score),[14],0.104
same,glycan array binding signal (z-score),[15],-0.075
same,glycan array binding signal (z-score),[16],-0.049
same,glycan array binding signal (z-score),[17],0.038
same,glycan array binding signal (z-score),[18],-0.157
same,glycan array binding signal (z-score),[19],-0.118
same,glycan array binding signal (z-score),[20],-0.117
same,glycan array binding signal (z-score),[21],-0.186
same,glycan array binding signal (z-score),[22],-0.131
